Reference: the supplement of paper PMC11417369
This is one part of the list.

Test system: PfAP2-HC AP2 domain (GST-tagged)
Test: gcPBM binding intensity (ln(normalized median fluorescence intensity)); higher = stronger DNA binding
In short: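 In this array assay, P. falciparum DNA-binding domains with a GST tag, expressed in E. coli, were applied for 1 h to primer-extended double-stranded 36-bp intergenic genomic probes and negative controls on an Agilent 4 × 180k array. Bound protein was visualised with Alexa488 anti-GST antibody at 488 nm. Binding intensity is the highest Masliner-normalised natural-log median intensity across replicate spots of either probe orientation.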

Row | Sequence | gcPBM binding intensity (ln)
1 | ATATGTATATTTTTTTGTACGTATTTATGTGTGTGT [XGTACX_site2093] | 10.6
2 | ATATATACAAGTATTTTTTTTTCAAACATTATTTTT [CACACA_negctrl_site1808] | 9.68
3 | ATATATGAGCAAAAATATATAAGATAACACATAAAT [CACACA_negctrl_site167] | 9.93
4 | TTATATATATATTATAGTACATATATAATATAGTAA [XGTACX_site6869] | 9.56
5 | TCTCTATAAATAAATACATGCATATAATAAAGAATT [TGCATGCA_site710] | 9.6
6 | ATTTTTTTTATTTTTTCAATATATATATATATATAT [CACACA_negctrl_site1444] | 9.74
7 | GAAATAGAAATAAAATAGGCATACAATAGAACTAAG [TGCATGCA_negctrl_site537] | 10
8 | TTATATATATATAATACACACATAATAATATATTTA [CACACA_site3038] | 9.63
9 | TATTTTACAAAATAAGGTACGTAAATATATGGTAGG [XGTACX_site2133] | 9.68
10 | AAATATCTTTTATATTGTACATATTCCTTATGTGGA [XGTACX_site7638] | 9.44
11 | TATTTAAAAATATATACACACATTTTATATTATTAT [CACACA_site781] | 9.81
12 | CCTTATTATTATTTTACACACGTCCTAATAAGAGGA [CACACA_site1319] | 9.62
13 | AATATATAAATAAATACACACATAAAATAGAAATAT [CACACA_site1663] | 10.2
14 | AAAAACAAAAAAGAAGCACACATATATATATATATA [CACACA_site8779] | 10.4
15 | TTTATCTGATATATTACACACAAAAAAAAAAAAAAA [CACACA_site7637] | 9.5
16 | AATATTATATATATGGGTACTAATTCCTTTAATTTC [XGTACX_site102] | 9.56
17 | TTTTTTTAAACTGAAAGTACTTATTCCAAGAAAATA [XGTACX_site50] | 9.15
18 | ATATATATATCAACAACACACGATTAACTAAAAAAA [CACACA_site302] | 9.94
19 | ATAATGACTAAATTTAAACACACAAGGGGAGTTTAC [CACACA_site8209] | 9.76
20 | AAAACAAATGAGTACACACACATAAAAGTTGAAAAT [CACACA_site6238] | 10.7
21 | CGCACAAAAATATACACACACACATCTATATTTATT [CACACA_site7675] | 10.4
22 | TACCCATATTAATATGTGCGCATATAAAAGTCAAAC | 9.72

Row | Sequence | gcPBM binding intensity (ln)
23 | GCATAAGAAATAAATAGTACACACATAGACACACAC [XGTACX_site3095] | 11.3
24 | TATATATATATATACACACACATATATATATATATA [CACACA_site1346] | 9.76
25 | ATAAGATATGTATATACACACATTTATTTACATATA [CACACA_site3263] | 9.88
26 | ATCATATATGTTATTACACACGTTATGTTATTATAA [CACACA_site2712] | 9.85
27 | TTAATTTCAAGTAGAAGTACTTTTATGATTGTGAGG [XGTACX_site1247] | 9.46
28 | GTGCATAGATGATATACACACAATATAATAGTATGT [CACACA_site5373] | 9.83
29 | TATAATTTAGCTTGTGCATGCAGGTGCTACATTTGT [TGCATGCA_site217] | 9.76
30 | TTTTCGGATAATAATTGTACGAAACATTTAAAAAAA [XGTACX_site8898] | 9.22
31 | TTGTAAGAAAAACACACACACACATATATATATATA [CACACA_site795] | 10.3
32 | TATATAATATATATATGTACACATATACATTTTTAT [XGTACX_site2832] | 9.87
33 | TAAATAGTTATAAAAGTGCAAAAAAAAAAAAAAAAA [GTGCAC_site9550] | 9.1
34 | ACTCAAAATTATAATTGTACAAATGCTTTGTTTAAT [XGTACX_site3437] | 9.77
35 | ACATTATATCTAAGTACACACATTAATTTTTTTTTT [CACACA_site7850] | 9.79
36 | CTATAACCTCTGTTCACACATATATCATAATTTACA [CACACA_site5446] | 9.79
37 | TTTATTTTGATTTAATGTACAAATAGTAAAACAAAA [XGTACX_site4789] | 9.24
38 | TATTTAAAAGCATATACACACAACTGGAATGAAAAG [CACACA_site6128] | 10.1
39 | GTTTCAAAATTAAACACACACAAAAAAAAAAAAAAA [CACACA_site2680] | 9.72
40 | TATTATATCTTTATTATTCATCTAAAATTTGTATTT [TGCATGCA_negctrl_site233] | 9.67
41 | TTGATTTACTATAGATGTACGTAAAATATAAATAAA [XGTACX_site8256] | 9.47
42 | ATAAAAAATAAATATATACATACATACATACATATA [XGTACX_negctrl_site507] | 9.81
43 | ATAAAACAAAAATATAAACACACATACATTGGTTTT [CACACA_site8809] | 10.1
44 | TTTTCAAAAATATACACACACATAAATATAGGTATA [CACACA_site6506] | 10.1

Row | Sequence | gcPBM binding intensity (ln)
45 | AATTTAAAAGAAAAAGAAAAATAATAAACAGAAGCA [XGTACX_negctrl_site503] | 9.69
46 | TGGGAAAATAATATTTATTTTATATATAAATATATA [CACACA_negctrl_site121] | 9.3
47 | AAAATACTAGATAGGGGAAAAAAAAAAAAAAAAAAA [CACACA_negctrl_site1732] | 8.84
48 | TATTGTAATATTAGCACACATTACCTCACTACAAAT [CACACA_site5419] | 9.82
49 | AACATGAAAATATATGCATTTGTATATATATATATA [TGCATGCA_negctrl_site16] | 9.59
50 | AATAAAACCCCGAAATCACACATTAAATGAAAAATA [CACACA_site4732] | 9.81
51 | AAAGCACCCATGCACACACACAAAGGAAAAGAAAAA [CACACA_site6249] | 10.3
52 | ATAAATGATAAAATTGCATGTGAATGTGAAAATATT [TGCATGCA_site251] | 9.86
53 | TCCATATATTTTAAAAGTACACATAAAAATTATTTA [XGTACX_site8127] | 9.26
54 | AATGGAAAAATAGGCACACACACATATATACATATA [CACACA_site1298] | 10.6
55 | TTGTTTTTCTTTGAATGTACTTAATGATTTCCAATT [XGTACX_site2499] | 9.79
56 | AAAAAAAAAAAAGATTGTACAGAATACTTTTAAAAT [XGTACX_site3576] | 9.43
57 | AAGTTAATGAAAAAATGTACCCAGAGTATTTTAAAA [XGTACX_site2997] | 9.67
58 | ATATAAATAAAATATACACACATACTGTTCATTTAA [CACACA_site7880] | 9.84
59 | TTTTTTTTTTATTTTGCACACTTCTAATTTAGTTCT [CACACA_site5828] | 9.92
60 | CATACGTTCTAATATATACACACCTGGTATTAATTA [CACACA_site2221] | 9.72
61 | CTATAATGTTTCTTTCAACACACAAAAAATGAACAC [CACACA_site8438] | 9.75
62 | ATTGCGTGATAATAATGTACAAAAAGTAATTTATAT [XGTACX_site8339] | 9.73
63 | AATATATAATTTTTAACACACAAAAAAAAAAAAAAT [CACACA_site3581] | 9.87
64 | AAAAAAAAAAAAAAAACACACACATATAATATATTT [CACACA_site8369] | 10.1
65 | TCATTCTAAATATAAACACACATAAATATATACATT [CACACA_site3354] | 9.65
66 | GGTACGTATTTCAATGCATGTCCATGTACATATAAA [TGCATGCA_site208] | 9.61

Row | Sequence | gcPBM binding intensity (ln)
67 | TTTTTATTTATATGTATACACACTTTAATTAAAAGT [CACACA_site2525] | 9.91
68 | AATAAAAAAAAATGCACACATATATATATATATATA [CACACA_site2421] | 9.71
69 | TGTTATATATAAATTTGTACACATAAATATTTTTAC [XGTACX_site5873] | 9.76
70 | CAGAATATATTCTATACATGCAATAGGAAATGTAGC [TGCATGCA_site110] | 9.97
71 | AAAAAAAAAAAAAAAAGTACAAAAATATATATGCAT [XGTACX_site8392] | 9.58
72 | TATGCACAGAAACACACACACACAACCAAAAAATAA [CACACA_site5425] | 10.5
73 | AAATTTTCTTAAGGTTGTACTTTTTGAAAATAATCT [XGTACX_site4894] | 9.22
74 | TTTTTATATATATGTATAAATATTTTTTCTATTTAT [XGTACX_negctrl_site606] | 9.54
75 | TGTAGTCTGGAGAAACGTACATAGTATCTGGTAGCT [XGTACX_site2538] | 9.61
76 | AATGTGTAGGTAAGATAATTTTTGTTTTTTTATTTG [CACACA_negctrl_site424] | 9.86
77 | ATATTTATAATATAGAGTACTTACTAAGTTATGGGT [XGTACX_site5405] | 9.7
78 | TTTTTTTCTCTCTCTACACACAAGGTTTAATTTAAA [CACACA_site1690] | 9.75
79 | TATAATATATCTGTAACACACAAAAGTTATATACTT [CACACA_site5578] | 9.77
80 | AACTCACGAGGACACACACACATATATATATATATA [CACACA_site4711] | 10.2
81 | ACATACATACATACATACATACATACATACATACAT [XGTACX_negctrl_site315] | 9.51
82 | TCATAGGGGTAGAAGGTGCAATAAAAAAGAAGAAAA | 9.46
83 | GAATTTCAACAAAGTAGTACATTTTATAGTAATTGG [XGTACX_site2319] | 9.48
84 | ATAAATATGTTCTGCACACAAATAAGTGTTTGAAGT [CACACA_site3892] | 9.84
85 | TAATGGAATAAAAATTGTACATATTTTTTTTTTTTT [XGTACX_site7669] | 9.41
86 | TGCCATATATATATTAAATACATAATAATGAGCCTA [GTGCAC_negctrl_site10] | 9.42
87 | AGTCATAAATTTATTTGTACATATAATATATATATA [XGTACX_site8489] | 9.62
88 | ATAAACAAAAAAAAAAAATATATCAATATATATATA [CACACA_negctrl_site299] | 9.46
